Data as given in PubChem BioAssay AID1671194 (National Center for Advancing Translational Sciences (NCATS), 2021).
Among all 140,000 compounds or so, about 240 (0.17%) were called active. The shares of active, inactive and inconclusive entries below differ from those in the screen. Calls come from the whole dose curve; as a rule, active = well fitted inhibition curve with a large enough effect; inconclusive = small, poorly fitted or top-dose-only effect; inactive = no such curve, though single readings can be large or run the other way. Potencies beside an inconclusive call are fits to weak or partial responses and may not hold up.

test: Primary qHTS assay for inhibitors of alpha-synuclein gene (SNCA) expression; details: HEK-293 SNCA-luciferase knock-in, luminescence, 24 h; activity change, negative = inhibition: at 57.2 µM (top of the series) unless noted; note: nearly all actives have a fitted effect of over 45% in size;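 for activity change, negative = inhibition: plate controls were DMSO cells for no effect and cell-free wells for full effect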
Potency is the fitted concentration of half-maximal effect; tags give direction and shape of the fitted curve.

SMILES	Potency	activity change, negative = inhibition
CN1C(=O)C2(CCN([S+](=O)([O-])c3cccc(C(F)(F)F)c3)C2)c2ccccc21 (configuration not stated)	inconclusive: 39.8 µM [inhibitor, single point]	
COc1ccccc1-c1ccc(C(=O)N2CCC(N[S+](=O)([O-])c3cccs3)CC2)cc1	inactive	
O=C(c1cnn(-c2cccc(F)c2)c1-n1cccc1)N1CCN(c2ccccc2F)CC1	inconclusive: 17.8 µM [inhibitor, single point]	
O=C(NC1CCCCC1)N[C@H]1CO[C@H]2[C@@H]1OC[C@@H]2n1cc(-c2ccccc2)nn1	inconclusive: 20 µM [inhibitor, single point]	
Cc1ccc(-c2nc3ccccc3[nH]2)cc1NC(=O)COc1ccccc1[N+](=O)[O-]	inconclusive: 17.8 µM [inhibitor, single point]	
COc1cccc(Cc2nc3ccccc3nc2SCC(=O)NCCc2ccccc2)c1	inconclusive: 39.8 µM [inhibitor, single point]	
Cc1ccc(CN2CCC3(CCNCC3)C2)c(Cl)c1Cl		inactive: 0.877%
O=C(O)c1ccc2cc(-c3ccc(O)c(C45CC6CC(CC(C6)C4)C5)c3)ccc2c1	inconclusive: 1.92 µM [inhibitor, full curve, poor fit]	
COc1ccc2cc(CN3CCCC(C#N)C3)c(-c3cccs3)nc2c1 (configuration not stated)		inactive: 0.299%
Cc1ccc2c(CNCC(C)c3ccccc3)c(C(=O)O)n(Cc3ccccc3C)c2c1 (configuration not stated)	inconclusive: 39.8 µM [inhibitor, single point]	
CC1=C(C(=O)NCc2ccccc2Cl)C2(CCCCCC2)OC1=O	inconclusive: 20 µM [inhibitor, single point]	
O=C(NCCc1noc(-c2ccncc2)n1)NC1CCCCC1		inactive: 0.746%
Cc1cc(C)c(CN2CCC(n3cc(C(C)(C)N)nn3)CC2)c(C)c1	inconclusive: 7.08 µM [inhibitor, single point]	
CC(=O)Nc1cccc(-c2nccc3c(=O)cc(N4CCOCC4)oc23)c1		inactive: 9.07% [at 87.6 µM]
Cc1nnsc1C(=O)N[C@H]1CCN(C(=O)c2ccco2)[C@H](C(=O)N[C@H](Cc2c[nH]c3ccccc23)C(N)=O)C1	inconclusive: 39.8 µM [inhibitor, single point]	
Cn1cc(CN2C[C@H](C(=O)Nc3cccnc3)C[C@H]2c2cccc(C(F)(F)F)c2)cn1	inconclusive: 31.6 µM [inhibitor, partial curve, poor fit]	
COc1cccc(-c2cc(C3CCN(C(=O)NCCc4ccccc4)CC3)[nH]n2)c1		inactive: 0.248%
Fc1c(Cl)cccc1Nc1ncncc1-c1nc(-c2ccccc2)no1	inconclusive: 8.91 µM [inhibitor, full curve, poor fit]	
COc1ccc(NS(=O)(=O)c2ccc3c(c2)C(C(C)C)C(=O)N3)cc1 (configuration not stated)	inconclusive: 28.2 µM [inhibitor, partial curve, poor fit]	
COCCNC(=O)c1cc(-c2ccc(C)cc2)c2nncn2n1		inactive: 8.73% [at 87.6 µM]
Cc1ccc(C(=O)N2CCN(C(=O)c3nc4cccnc4n(CCc4ccccc4)c3=O)CC2)cc1		inactive: -2.14%

SMILES	Potency	activity change, negative = inhibition
CS(=O)(=O)Nc1ccc(C2(C(=O)NCc3ccccc3Cl)CCCCC2)cc1		inactive: -13.7%
CCNc1ncnc2sc3c(c12)CCN(C(=O)NCCOC)C3	inconclusive: 0.708 µM [inhibitor, single point]	
CCn1c(=O)c2cc(C(=O)N(CCCOC(C)C)Cc3ccco3)sc2c2ccccc21	inconclusive: 0.562 µM [inhibitor, full curve]	
COc1ccc(-c2cc3c(nc2-c2ccccc2)nc(C(=O)NCCN(C)C)n3C)cn1		inactive: -30% [at 87.6 µM]
COc1ccc(CN2CC[C@@H]3CN(S(C)(=O)=O)[C@@H]3C2)cc1C	inconclusive: 39.8 µM [inhibitor, partial curve, poor fit]	
CC(C)C[C@H](CO)NC(=O)C[C@@H]1c2nc(-c3cccnc3)sc2C[C@@H]2[C@](C)(CO)[C@H](O)CC[C@]21C		inactive: 6%
CC[C@H]1CN(C(=O)c2ccnc(Cl)c2)CC[C@H]1CC(=O)O	inconclusive: 11.2 µM [inhibitor, single point]	
Cc1cc(C(=O)N2C[C@@H](CO)[C@H](c3ccccn3)C2)c(C)o1	inconclusive: 5.01 µM [inhibitor, partial curve]	
Cc1sc2ccn(Cc3ccc(F)cc3)c(=O)c2c1C(=O)NCCCN1CCOCC1		inactive: 11.2%
Cc1ccc(-n2nc3c(=O)n(CCCC(=O)NCCc4ccccc4)nc(C)c3c2C)cc1		inactive: 21.9%
COc1ccc(C(C)NC(=O)C2(c3ccc(NS(C)(=O)=O)cc3)CCCCC2)cc1 (configuration not stated)	inconclusive: 25.1 µM [inhibitor, single point]	
CCOc1cc(=O)n2c(c1C(=O)NCCOC)CCCCC2	inconclusive: 10 µM [inhibitor, partial curve, poor fit]	
COc1ccc(N2CC(C(=O)N3CCC(C(=O)N4CCC(C#N)CC4)C3)NC2=O)cc1 (configuration not stated)		inactive: -0.655%
COC(=O)C1=CN(CC(=O)NC(C)CCc2ccccc2)S(=O)(=O)N=C1C (configuration not stated)	inconclusive: 7.08 µM [inhibitor, single point]	
O=C(NCC1CCOC1)C1CCN(c2nc(-c3ccccc3)nc3c2CCC3)CC1 (configuration not stated)	inconclusive: 3.55 µM [inhibitor, full curve, poor fit]	
CCN1CCN(C(c2cccc(F)c2)c2c(O)cc(C)n(CCOC)c2=O)CC1 (configuration not stated)		inactive: 9.98%
Cc1cc(NS(=O)(=O)c2ccc3nc(-c4ccccc4)[nH]c3c2)ccc1Br	inconclusive: 31.6 µM [inhibitor, partial curve, poor fit]	
Cc1cccc(C)c1OCCCCn1c(C2CC(=O)N(c3ccc(F)cc3)C2)nc2ccccc21 (configuration not stated)	inconclusive: 39.8 µM [inhibitor, single point]	
CC(C)(C)N1CC(C(=O)NCCCc2ccc(Cl)cc2)CC1=O (configuration not stated)		inactive: -21.1%
CC(C)CNC(=O)[C@@H]1CCCN1c1nccc(Nc2ccccc2Cl)n1	inconclusive: 39.8 µM [inhibitor, single point]	
O=c1n(CCCN2CCN(c3cccc(Cl)c3)CC2)nc2ccccn12	inconclusive: 42.9 µM [inhibitor, single point]	
